Results published in publication PMC4336329 (PLoS ONE, 2015).
Among all 310,000 compounds or so, about 14,000 (4.5%) showed an effect of 50% or more. The effect is printed as a negative number. This is one part of the list.

Target: human ether-à-go-go-related gene (hERG) potassium channel (human, UniProt Q12809)
Experiment: primary screen, population patch clamp on CHO cells stably expressing hERG
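Also: peak tail current of the secondary pulse compared with the same well before compound.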

human ether-à-go-go-related gene (hERG) potassium channel, sequence (Q12809 whole entry, looked up): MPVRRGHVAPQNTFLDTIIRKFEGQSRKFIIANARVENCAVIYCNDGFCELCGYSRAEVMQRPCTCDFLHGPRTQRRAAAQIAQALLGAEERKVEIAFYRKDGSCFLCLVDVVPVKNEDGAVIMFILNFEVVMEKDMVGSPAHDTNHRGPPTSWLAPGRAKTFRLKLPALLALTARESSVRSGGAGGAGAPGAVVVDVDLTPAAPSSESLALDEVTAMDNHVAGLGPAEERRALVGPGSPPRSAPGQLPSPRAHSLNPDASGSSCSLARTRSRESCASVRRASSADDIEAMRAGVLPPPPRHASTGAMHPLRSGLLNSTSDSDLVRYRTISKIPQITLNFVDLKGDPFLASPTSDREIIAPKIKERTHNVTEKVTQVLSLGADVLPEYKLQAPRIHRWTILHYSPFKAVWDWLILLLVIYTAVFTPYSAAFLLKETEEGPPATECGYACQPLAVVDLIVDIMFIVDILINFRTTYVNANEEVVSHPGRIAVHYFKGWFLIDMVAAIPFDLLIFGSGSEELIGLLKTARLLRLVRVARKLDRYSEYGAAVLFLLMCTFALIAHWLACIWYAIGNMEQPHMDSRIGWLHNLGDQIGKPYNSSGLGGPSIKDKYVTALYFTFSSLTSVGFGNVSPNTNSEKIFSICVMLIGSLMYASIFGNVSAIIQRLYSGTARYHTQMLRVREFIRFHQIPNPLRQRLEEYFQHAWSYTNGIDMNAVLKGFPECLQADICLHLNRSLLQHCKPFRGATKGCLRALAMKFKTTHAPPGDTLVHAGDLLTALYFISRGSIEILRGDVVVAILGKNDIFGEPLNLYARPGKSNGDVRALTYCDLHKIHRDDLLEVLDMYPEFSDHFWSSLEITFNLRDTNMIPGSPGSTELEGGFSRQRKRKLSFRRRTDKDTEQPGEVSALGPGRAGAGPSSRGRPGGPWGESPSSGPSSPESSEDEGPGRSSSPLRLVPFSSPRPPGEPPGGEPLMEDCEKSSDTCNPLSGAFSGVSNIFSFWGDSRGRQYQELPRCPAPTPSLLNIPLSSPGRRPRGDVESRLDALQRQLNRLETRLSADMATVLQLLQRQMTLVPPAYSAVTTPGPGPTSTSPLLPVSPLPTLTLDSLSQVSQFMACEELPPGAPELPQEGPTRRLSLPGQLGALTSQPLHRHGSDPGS

Row | SMILES | hERG current change (%, negative = inhibition) at 10uM
1 | Cc1ccc(-c2noc(CSc3nnc(-c4ccncc4)n3-c3ccc(F)cc3)n2)cc1 | -10.3%
2 | COc1ccc(NC(=O)c2sc(SC)nc2N)cc1 | -0.0249%
3 | Cc1ccc(C(=O)C2CCN(CC(=O)NC3CCCCC3)CC2)cc1 | -15.9%
4 | Fc1cccc(F)c1-c1nc(-c2ccc(Cl)cc2)no1 | 10.3%
5 | O=C(c1ccc2c(c1)OCO2)N(c1ccc(Cl)cc1)C1C=CS(=O)(=O)C1 (stereo not drawn) | -16.8%
6 | Br.CC(C)(C)c1ccc(OCC(=O)NN2Cc3ccccc3C2=N)cc1 | -65.5%
7 | Cn1c(CO)cnc1SCc1ccccc1 | 1.99%
8 | CCOC(=O)C1C(=O)NC(c2ccccc2)=NC1c1cccc(Br)c1 (stereo not drawn) | 15.9%
9 | C[S+](CC[C@H](N)C(=O)O)C[C@H]1O[C@@H](n2cnc3c(N)ncnc32)[C@H](O)[C@@H]1O.[Cl-] (stereo partly drawn) | 1.39%
10 | CCOC(=O)c1ccc(-c2nnc(-c3ccc(Cl)cc3Cl)o2)cc1 | -1.38%
11 | Cc1ccc(S(=O)(=O)N2CCN(CCNC(=O)C(=O)NCc3ccccc3)CC2)cc1 | 5.65%
12 | CC/C(O)=C1\C(=O)CCCC1=NCCc1nc2ccccc2[nH]1 | -4.16%
13 | O=C(OCc1cc(=O)n2cc(Br)ccc2n1)c1ccc(Cl)c(S(=O)(=O)NCc2ccccc2)c1 | 6.43%
14 | CCOC(=O)C1=C(C)NC(=O)NC1/C=C/c1ccccc1OC (stereo not drawn) | 22.6%
15 | CC(=O)c1cccc(NC(=O)NC2CC(=O)N(c3ccc4c(c3)OCCO4)C2)c1 (stereo not drawn) | 0.0754%
16 | CC(NC(=O)CN1c2cccc3cccc(c23)S1(=O)=O)c1ccc(S(N)(=O)=O)cc1 (stereo not drawn) | -25.1%
17 | Cc1cccc(N(C)S(=O)(=O)c2c[nH]c3ccc([N+](=O)[O-])cc23)c1 | 12.5%
18 | COc1ccc(OC)c(NC(=O)C2CCCNC2=O)c1 (stereo not drawn) | 4.53%
19 | CC(Cc1ccccc1)NCCC(=O)NC(C)Cc1ccccc1 (stereo not drawn) | 11.5%
20 | O=C(CCN1CCN(c2ccc(Cl)cc2)CC1)Nc1ccccc1F | -34%
21 | Cc1ccccc1OCCC(=O)OCC(=O)Nc1c(F)cccc1F | 7.99%
22 | CC(C)(C)[C@H]1C=C(C(=O)O)O[C@@H](OCCCCO)C1 | 6.41%
23 | O=c1ccc(Br)c[nH]1 | 10.3%

Row | SMILES | hERG current change (%, negative = inhibition) at 10uM
24 | COc1ccc(Cl)cc1N=Cc1c(O)c2ccccc2oc1=O | 26.2%
25 | COc1c2c(cc3oc(=O)ccc13)OC(C)(C)C=C2 | -3.85%
26 | COc1cc(/C=N/NC(=O)c2csc3c2CCCC3)ccc1OCCN1CCOCC1 | -31.9%
27 | COc1ccccc1N(CCC#N)C(=O)CSc1nnc2ccccn12 | -7.23%
28 | N#Cc1c(/N=C/c2ccc(-c3ccccc3C(=O)O)o2)sc2c1CCCC2 | 20.1%
29 | Cc1cccc(C2c3[nH]c4ccccc4c3CCN2C(=O)c2noc3c2CCCC3)n1 (stereo not drawn) | 1.18%
30 | CC(=O)c1ccc(NC(=O)CCNC(=O)c2ccccc2Cl)cc1 | -46%
31 | O=C(N/N=C/C(Cl)=C\c1ccccc1)c1cccs1 | 13.3%
32 | COc1ccccc1N1CCN(C(=O)c2sc3nc(-c4ccccc4)cn3c2C)CC1 | -35%
33 | Cc1nn(CCCC(=O)NCc2ccccc2)c(C)c1[N+](=O)[O-] | -3.55%
34 | CCCC(=O)N1CCN(c2nc(CC(C)C)c3c(c2C#N)CCC3)CC1 | -53%
35 | CCN(Cc1nc(-c2ccc(OC)c(OC)c2)no1)C(=O)c1ccoc1C | 12.7%
36 | O=C(O)c1cccc(Nc2ccc([N+](=O)[O-])cn2)c1 | 21.3%
37 | NC(=O)c1c(N)sc(=S)n1CC1CCCO1 (stereo not drawn) | 0.716%
38 | O=C(CSc1nc(Nc2ccccc2)nc(N2CCOCC2)n1)Nc1cc(Cl)ccc1O | -26.8%
39 | COc1ccccc1C(=O)Nc1ccc(Oc2nnc(-c3ccc(C)cc3)c3ccccc23)cc1 | 11.8%
40 | CC(C)CNC(=O)CCc1nc(-c2ccccc2)no1 | 10.4%
41 | O=C(CCC1CCCC1)NNC(=O)c1ccc(F)cc1 | -9.74%
42 | CCOC(=O)c1[nH]cnc1C(=O)N[C@@H](C)c1ccccc1 | -5.33%
43 | CCNC(=S)N1CCN(c2ccccc2OCC)CC1 | -1.46%
44 | C[C@@H](CSc1ccc(Br)cc1)CN1CC[C@H](O)CCC1=O | -12%
45 | CC1CC(C)CN(C(=S)SCc2nc(N)nc(Nc3ccccc3)n2)C1 (stereo not drawn) | -6.04%
46 | COc1ccc(NC(=O)Nc2ccc(CC(=O)O)cc2)cc1 | 21.8%

Row | SMILES | hERG current change (%, negative = inhibition) at 10uM
47 | Cn1nc(C(F)(F)F)c(-c2ccccc2)c1NC(=O)c1ccco1 | -3.07%
48 | COc1ccc(-c2nc3scc(-c4ccccc4)n3n2)cc1 | 10.1%
49 | CCN(CC)S(=O)(=O)c1ccc(NC(=S)NC(=O)C(C)C)cc1 | -3.29%
50 | Cc1cccc(CC(C)NC(=O)c2cc(COc3ccc(F)cc3F)on2)n1 (stereo not drawn) | -40.7%
51 | CC(=O)N(C)c1ccc(N=NC2C(=O)N(C(N)=S)N=C2C)cc1 (stereo not drawn) | 21.1%
52 | O=c1c2oc3ccccc3c2[nH]c(=S)n1-c1ccc(F)cc1 | 25.3%
53 | COC(=O)CSc1nc2cc(C)cc(C)c2cc1C#N | 14.5%
54 | CCCOc1ccc(N2C(=O)CC(N(C(=O)c3ccco3)c3ccc(OCCC)cc3)C2=O)cc1 (stereo not drawn) | -4.62%
55 | Cn1c(SCc2cccnc2)nc2c(c1=O)SCC2 | 7.48%
56 | Nc1nc(SCC(=O)Nc2ncc(Cl)cc2Cl)n[nH]1 | 5.12%
57 | COc1ccc(/C=C/C(=O)OCC(=O)NCC2CCCO2)cc1 (stereo not drawn) | 1.74%
58 | CC(Sc1nnc(COc2ccc(Cl)cc2)n1-c1ccccc1)C(=O)O (stereo not drawn) | 3.41%
59 | O=c1[nH]c(CN2CCN(C/C=C/c3ccccc3)CC2)nc2cc(Cl)ccc12 | -106%
60 | COC(=O)/C(C(C)=O)=C(\C=C\N(C)C)N(C)C | -4.57%
61 | CC(=O)Nc1cccc(NC(=O)CS(=O)(=O)c2cn(CC(=O)N3CCOCC3)c3ccccc23)c1 | -0.432%
62 | FC(F)(F)c1nnc2n1N=C(c1cccs1)CS2 | -3.38%
63 | CN(C)CCCNC(=S)N1CCN(c2nc(-c3ccccc3)cs2)CC1 | -23.7%
64 | COc1cccc2c1OCC(CN1CCN(CCC(C)C)C(CCO)C1)=C2 (stereo not drawn) | -3.37%
65 | O=C(NCCCN1CCOCC1)c1cc2ccccc2cc1O | 7.28%
66 | COCCNC(=S)NCCc1ccc(Cl)cc1Cl | 5%
67 | COc1ccc(N(CC(=O)N/N=C/c2ccco2)S(=O)(=O)c2ccccc2)cc1 | -31%
68 | CC1=C(C)CS(=O)N(c2ccc(S(N)(=O)=O)cc2)C1 (stereo not drawn) | -7.78%
69 | CCN(CC(=O)NCc1ccc(Cl)cc1)C(=O)C(C)Sc1ccccc1 (stereo not drawn) | -33.8%

Row | SMILES | hERG current change (%, negative = inhibition) at 10uM
70 | CC(Oc1cccc(Br)c1)C(=O)NNC(=O)CCNC(=O)c1ccccc1Cl (stereo not drawn) | -5.69%
71 | CCS(=O)(=O)Nc1cccc(-c2nc3cccnc3s2)c1 | -29.7%
72 | COc1ccc(NC(=O)Nc2cc(C(C)(C)C)on2)cc1OC | -1.9%
73 | CC1CCCCC1NS(=O)(=O)c1ccc2c(c1)CC(=O)N2C (stereo not drawn) | 3.42%
74 | COCCOC(=O)c1[nH]c2c(c1C)C(=O)CC(c1ccc(OC)c(OC)c1)C2 (stereo not drawn) | 9.54%
75 | C/C(=N\NC(=O)CN1CCN(Cc2ccc(C)cc2)CC1)c1ccncc1 | -74.8%
76 | O=C(c1ccc(=O)[nH]c1)N1CCN(S(=O)(=O)c2cc(C(F)(F)F)ccc2Cl)CC1 | -13.4%
77 | COc1cc(-c2nnc(SCC(=O)N3c4ccccc4Sc4ccccc43)o2)cc(OC)c1OC | 0.943%
78 | CN(C(=O)CSc1nnc(-c2ccco2)n1N)C1CCCCC1 | 1.61%
79 | Cc1cc(NC(=O)CSc2nc3c(c(=O)n2-c2ccc(Br)cc2)SCC3)no1 | -0.564%
80 | O=C(O)c1cc(S(=O)(=O)Nc2ccc3oc(=O)sc3c2)ccc1O | 9.71%
81 | CNC(=O)NC(=S)NC(=O)c1ccccc1Cl | 9.27%
82 | COc1ccc(OCc2cc(C(=O)N3CCOCC3)no2)c(Cl)c1 | -9.96%
83 | Cc1ccc2cc(CCNC(=O)c3ccc(Br)o3)c(=O)[nH]c2c1 | -24.3%
84 | c1ccc(Cn2nnc3c(N4CCCC4)ncnc32)cc1 | -6.32%
85 | Cc1ccc(C(=O)NCCNc2ncc(C(F)(F)F)cc2Cl)cc1[N+](=O)[O-] | -32.2%
86 | CCc1ccc(-n2c(=O)c3c(C)c(C(=O)N(C)C)sc3n(CC(=O)NCC3CCCO3)c2=O)cc1 (stereo not drawn) | -0.681%
87 | Cl.O=C(O)c1ccc(Nc2ncnc3ccccc23)cc1 | 22.8%
88 | Cc1ccc(C)c(OCC(=O)NC(Cc2c[nH]c3ccccc23)C(=O)O)c1 (stereo not drawn) | 22.7%
89 | CCOc1ccc(NC(=S)NCCCN2CCN(C3CCCCC3)CC2)cc1 | -47.2%
90 | N#C/C(=C/c1cn(CC(=O)O)c2ccccc12)c1ccc(F)cc1 | -4.63%
